Experimental findings from publication PMC4336329 (PLoS ONE, 2015) are described below.

Hit rate of the full screen: of about 310,000 compounds, about 2,200 (0.71%) showed an effect of 50% or more. Effects have a minus sign here. The list shows a part of the results.

Chain of human ether-à-go-go-related gene (hERG) potassium channel (Q12809 whole entry, looked up): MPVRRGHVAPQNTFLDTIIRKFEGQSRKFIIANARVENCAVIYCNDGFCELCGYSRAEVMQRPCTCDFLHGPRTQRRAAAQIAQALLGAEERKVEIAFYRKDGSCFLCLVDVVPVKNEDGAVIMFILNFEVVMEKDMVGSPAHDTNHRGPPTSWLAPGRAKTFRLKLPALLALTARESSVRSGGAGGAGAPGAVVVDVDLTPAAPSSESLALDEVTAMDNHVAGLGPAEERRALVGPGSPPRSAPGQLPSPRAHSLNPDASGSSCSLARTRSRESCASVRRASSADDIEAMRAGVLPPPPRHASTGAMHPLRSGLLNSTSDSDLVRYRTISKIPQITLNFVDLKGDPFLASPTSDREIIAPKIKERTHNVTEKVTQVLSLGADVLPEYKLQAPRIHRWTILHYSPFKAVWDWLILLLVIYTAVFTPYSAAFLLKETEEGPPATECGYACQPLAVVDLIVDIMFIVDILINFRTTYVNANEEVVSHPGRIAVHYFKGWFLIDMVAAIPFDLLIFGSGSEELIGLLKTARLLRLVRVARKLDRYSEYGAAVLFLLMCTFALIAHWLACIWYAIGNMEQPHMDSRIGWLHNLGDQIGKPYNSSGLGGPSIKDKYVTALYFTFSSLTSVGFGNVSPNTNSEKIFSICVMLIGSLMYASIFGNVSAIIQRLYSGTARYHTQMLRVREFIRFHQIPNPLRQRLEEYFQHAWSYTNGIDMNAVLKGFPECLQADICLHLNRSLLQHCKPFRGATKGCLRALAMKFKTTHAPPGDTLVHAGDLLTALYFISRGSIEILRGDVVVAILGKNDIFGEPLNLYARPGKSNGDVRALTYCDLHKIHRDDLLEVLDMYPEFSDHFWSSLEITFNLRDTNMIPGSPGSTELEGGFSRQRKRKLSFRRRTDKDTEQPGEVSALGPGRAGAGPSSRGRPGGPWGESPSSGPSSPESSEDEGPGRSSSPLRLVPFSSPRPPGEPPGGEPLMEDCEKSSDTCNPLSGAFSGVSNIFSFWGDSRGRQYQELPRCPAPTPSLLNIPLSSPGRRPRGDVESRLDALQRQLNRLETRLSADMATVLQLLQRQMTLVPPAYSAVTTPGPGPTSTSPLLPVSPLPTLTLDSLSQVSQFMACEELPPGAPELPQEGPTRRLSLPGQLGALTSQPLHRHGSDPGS

This assay has as its target human ether-à-go-go-related gene (hERG) potassium channel (human, UniProt Q12809). Nature of the assay: primary screen, population patch clamp on CHO cells stably expressing hERG.
`CC(=O)N1c2ccccc2C(C)=CC1(C)C`: the “hERG current change (%, negative = inhibition) at 1uM” value is recorded as 12.5%.

`CN(C)S(=O)(=O)c1ccc(NC(=O)CSc2ncnc3ccccc23)cc1`: the “hERG current change (%, negative = inhibition) at 1uM” value came out at 10.3%.

With `CCCCn1nnnc1SCC(=O)N1CCCC1`, the “hERG current change (%, negative = inhibition) at 1uM” value worked out at 13.1%.

Consider `O=S(=O)(c1cccc2cccnc12)N(CCO)CCO`, for which the “hERG current change (%, negative = inhibition) at 1uM” value worked out at 18.1%.

For the compound `COC(=O)c1scc(C#N)c1N/N=C(\C#N)S(=O)(=O)c1ccc(Cl)cc1`, the “hERG current change (%, negative = inhibition) at 1uM” value is 8.9%.

`CN(CC(=O)Nc1ccccc1Oc1ccccc1)Cc1ccccc1F.O=C(O)C(=O)O`: the “hERG current change (%, negative = inhibition) at 1uM” value amounted to 11.4%.

With `COc1cc(SC)ccc1C(=O)NCC1CCCCC1`, the “hERG current change (%, negative = inhibition) at 1uM” value is 4.23%.

`O=C1Nc2ncccc2OC1CCCl` (stereo not drawn): the “hERG current change (%, negative = inhibition) at 1uM” value is 11.4%.

As for `CC(Cc1cccnc1)NC(=O)c1ccccc1OC1CCN(S(C)(=O)=O)CC1` (stereo not drawn), the “hERG current change (%, negative = inhibition) at 1uM” value is reported as 9.74%.

Regarding `CCOC(=O)C1(Cc2cccc(Cl)c2)CCCN(C(=O)c2ccco2)C1` (stereo not drawn), the “hERG current change (%, negative = inhibition) at 1uM” value came out at 16.6%.

On to `CCOC(=O)C(=O)N/N=C(/c1ccccc1)c1ccc(OC)cc1`, for which the “hERG current change (%, negative = inhibition) at 1uM” value came out at 11.1%.

For the compound `CC(C)CSc1nc2ccccc2[nH]1`, the “hERG current change (%, negative = inhibition) at 1uM” value is on record as 13%.

Turning to `Cc1ccc(C(=O)Nc2ncc(Cc3ccccc3)s2)o1`, the “hERG current change (%, negative = inhibition) at 1uM” value is reported as -2.28%.

As to `Cc1cccc(CNC(=O)CCc2nnc(C3CCCCC3)o2)c1`, the “hERG current change (%, negative = inhibition) at 1uM” value was 9.53%.

For the compound `Cc1ccccc1N=Nc1c(N)n[nH]c1N`, the “hERG current change (%, negative = inhibition) at 1uM” value is 3.57%.

On to `COc1ccc(OC)c(NC(=O)COC(=O)c2ccc(OC)c(S(=O)(=O)N3CCOCC3)c2)c1`, for which the “hERG current change (%, negative = inhibition) at 1uM” value stood at 8.3%.

Regarding `O=C(CSc1ccc2ccccc2n1)N/N=C/c1ccc(O)cc1`, the “hERG current change (%, negative = inhibition) at 1uM” value was 2.89%.

As for `COCc1cc(C)nc(SCC(=O)Nc2ccc(C)c(C)c2)c1C#N`, the “hERG current change (%, negative = inhibition) at 1uM” value is given as 1.69%.

On to `COc1ccc(OC)c(C(=O)Cn2cnc3ccccc3c2=O)c1`, for which the “hERG current change (%, negative = inhibition) at 1uM” value was determined as 1.84%.

For the compound `CCCN1CCc2c(sc3nc(SC)n(-c4ccccc4)c(=O)c23)C1`, the “hERG current change (%, negative = inhibition) at 1uM” value is reported as 5.03%.

Take `COc1ccc2nc(NC(=O)CSc3nnc(N)s3)sc2c1`: the “hERG current change (%, negative = inhibition) at 1uM” value was found to be 10.3%.

For the compound `CCOC(=O)C1CCN(C(=O)C2CCCN(S(=O)(=O)c3ccc(OCC)c(Cl)c3)C2)CC1` (stereo not drawn), the “hERG current change (%, negative = inhibition) at 1uM” value was -13.9%.

Regarding `COc1ccc2[nH]c(=O)c(CN(CC3CCCO3)C(=S)Nc3cccc(C)c3)cc2c1` (stereo not drawn), the “hERG current change (%, negative = inhibition) at 1uM” value was 25.9%.

Regarding `COc1ccc(CCNC(=O)/C=C\c2ccccc2)cc1OC`, the “hERG current change (%, negative = inhibition) at 1uM” value is given as 4.35%.

Turning to `CC[N+](CC)(CC)CCOc1ccc(/C=C/c2ccccc2)cc1.[I-]`, the “hERG current change (%, negative = inhibition) at 1uM” value is listed as 1.94%.

As to `COc1cccc(-c2csc(N3CCN(C(=O)Nc4ccccc4OC)CC3)n2)c1`, the “hERG current change (%, negative = inhibition) at 1uM” value stood at 0.646%.

For `Cc1cccc[n+]1CC(=O)c1ccc2c(c1)OCCO2.[Br-]`, the “hERG current change (%, negative = inhibition) at 1uM” value is 1.08%.

On to `CC/C(=N/O)c1cnnc(SC)n1`, for which the “hERG current change (%, negative = inhibition) at 1uM” value came out at 8.46%.

Turning to `Cl.Clc1ccccc1CN1CCN(/N=C/c2ccncc2)CC1`, the “hERG current change (%, negative = inhibition) at 1uM” value came out at 9.95%.

For `CC(=O)NCCC(Cc1ccccc1)c1ccco1` (stereo not drawn), the “hERG current change (%, negative = inhibition) at 1uM” value is on record as 10.8%.

For `COc1cccc(CNC(=O)c2ccc(C)c(NC3=NC4CS(=O)(=O)CC4S3)c2)c1` (stereo not drawn), the “hERG current change (%, negative = inhibition) at 1uM” value is on record as 6.73%.

`N#CCSc1nc2c(c(C3CC=CCC3)c1C#N)CCC2` (stereo not drawn): the “hERG current change (%, negative = inhibition) at 1uM” value is given as 18.3%.

On to `NNc1nc(C(F)(F)F)nc2ccccc12`, for which the “hERG current change (%, negative = inhibition) at 1uM” value worked out at 30.1%.

`CC(NC(=O)CNC(=S)N(Cc1cccs1)C1CCCC1)c1ccccc1` (stereo not drawn): the “hERG current change (%, negative = inhibition) at 1uM” value is reported as -5.94%.

On to `Oc1c(C(c2ccco2)N2CCC3(CC2)OCCO3)sc2ncnn12` (stereo not drawn), for which the “hERG current change (%, negative = inhibition) at 1uM” value is 0.42%.

Regarding `COc1ccc(OC(C)C(=O)N2CCC(C)CC2)cc1` (stereo not drawn), the “hERG current change (%, negative = inhibition) at 1uM” value amounted to 8.02%.

`COc1cccc(-c2ccc(NC(=O)C3CCCN(CCCn4nc(C)cc4C)C3)cc2)c1` (stereo not drawn): the “hERG current change (%, negative = inhibition) at 1uM” value is listed as -15.9%.

In the case of `CN(C)C(CNC(=O)c1ccc(OCc2cn3ccccc3n2)cc1)c1ccco1` (stereo not drawn), the “hERG current change (%, negative = inhibition) at 1uM” value was 3.22%.

On to `COc1ccc(Cl)cc1NC(=O)c1cccc(NC(=O)CCC(=O)O)c1`, for which the “hERG current change (%, negative = inhibition) at 1uM” value is on record as 6.71%.

Take `O=C(Cc1c[nH]c2ccccc12)N/N=C/c1ccc(F)cc1`: the “hERG current change (%, negative = inhibition) at 1uM” value was determined as 13.1%.

In the case of `Cc1ccc(C)c(NC(=O)CCC(=O)OC(C(=O)c2ccccc2)c2ccccc2)c1` (stereo not drawn), the “hERG current change (%, negative = inhibition) at 1uM” value is given as -6.38%.

Turning to `CC1CC(NC(=O)c2cnc3n(c2=O)CCS3)CC(C)(C)C1` (stereo not drawn), the “hERG current change (%, negative = inhibition) at 1uM” value is recorded as 10.7%.

As to `Cc1c(Cc2ccc3c(c2)OCO3)sc(NC(=O)C2CC2)c1C(N)=O`, the “hERG current change (%, negative = inhibition) at 1uM” value is recorded as 1.07%.

With `Cc1ccc(C)c(NC(=S)N2CCN(CCO)CC2)c1`, the “hERG current change (%, negative = inhibition) at 1uM” value came to 5.15%.

With `CCOC(=O)c1cnc2ccc(C)cc2c1NCCO`, the “hERG current change (%, negative = inhibition) at 1uM” value was -26.3%.
